# In all, about 420,000 compounds went through this assay and about 50,000 (12%) were called active. The shares of active, inactive and inconclusive entries below differ from those in the screen. Calls come from the whole dose curve; as a rule, active = well fitted inhibition curve with a large enough effect; inconclusive = small, poorly fitted or top-dose-only effect; inactive = flat fitted curve, though single readings scatter. No potency is given beside an inconclusive call; the fits are too rough.
# Test: qHTS for Inhibitors of human tyrosyl-DNA phosphodiesterase 1 (TDP1): qHTS in cells in presence of CPT; note: nearly all actives have a fitted effect of over 55% in size
# Conditions: chicken DT40 Tdp1-/-;hTDP1 cells + 20 nM CPT, ATP luminescence, 48 h; activity change, negative = growth inhibition: at 46.2 µM (top of the series)
# Method in brief: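 Chicken DT40 Tdp1-/- cells stably complemented with human TDP1 were seeded at 400 cells/well in medium containing 20 nM camptothecin, exposed to pin-transferred compounds, and grown at 37 °C for at least 48 hr. Viability was read as ATP luminescence.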
# % is set by controls: 0 for no effect and ±100 for the full control effect; potency is the fitted concentration of half-maximal effect; tags give direction and shape of the fitted curve.
SMILES,Potency,"activity change, negative = growth inhibition"
Cc1c(CCO)c(=O)[nH]n1S(=O)(=O)c1ccc(Cl)cc1Cl,"inconclusive [inhibitor, partial curve]",–
COc1ccc(C2/C=C\CN(S(=O)(=O)c3ccc(-c4ccccc4)cc3)CC(=O)N2Cc2ccc(F)cc2)cc1 (stereo unspecified),"inconclusive [inhibitor, single point]",–
CC(C)CNC(=O)C1CCN(Cc2ccc(OCc3ccccc3)cc2)CC1,"inconclusive [inhibitor, single point]",–
CC(=O)c1ccc(NC(=O)c2cc(Cl)sc2Cl)cc1,–,inconclusive: -35.8% [inhibitor]
Cc1ccc(C)c(OCCC(=O)OCC(=O)Nc2cccc(S(=O)(=O)N3CCCC3)c2)c1,"inconclusive [inhibitor, partial curve, poor fit]",–
O=C(Nc1cccc(Cl)c1)N1CC2CCCN2c2ccccc21 (stereo unspecified),"inconclusive [inhibitor, single point]",–
CC1(C)CC(=O)C2=C(C1)N(c1ccc(F)cc1)C(N)=C(C#N)C2c1cccs1 (stereo unspecified),"inconclusive [inhibitor, partial curve]",–
O=C(C1CCC(CNS(=O)(=O)c2ccc(Br)s2)CC1)N1CCN(c2ccc(F)cc2)CC1 (stereo unspecified),"inconclusive [inhibitor, full curve]",–
COc1ccc(S(=O)(=O)N(C)C[C@H]2OCCCC[C@H](C)Oc3ccc(NC(=O)Nc4ccc(F)cc4)cc3C(=O)N([C@H](C)CO)C[C@H]2C)cc1,"inconclusive [inhibitor, single point]",–
Cc1cc(C)c(OCC(=O)N/N=C/c2ccc3c(c2)OCO3)c(C)c1,active: 2.91 µM,–
CCCC1/C(=N/O)CC(c2ccccc2)NC1c1ccccc1 (stereo unspecified),"inconclusive [inhibitor, single point]",–
O=C(CCc1ccccc1)Nc1cccc(NC(=O)CCc2ccccc2)c1,"inconclusive [inhibitor, single point]",–
CCOc1ccc(NC(=O)Cn2c(=O)n(CCCCC(=O)NCCc3ccc(Cl)cc3)c(=O)c3ccccc32)cc1,"inconclusive [inhibitor, single point]",–
Cc1ccc(N2CN(CCc3ccccc3)CNC2=S)cc1,inactive,–
Cc1ccc(Nc2nc(N)c([N+](=O)[O-])c(NCc3ccco3)n2)cc1,"inconclusive [inhibitor, single point]",–
CCOc1ccc(C(=O)Nc2ccc3oc(-c4ccc(C)cc4C)nc3c2)cc1Br,"inconclusive [inhibitor, single point]",–
Cc1ccc(OCc2cc(C(=O)N3CCN(c4ccccc4)CC3)no2)cc1C,inactive,–
O=C(NCCC1=CCCCC1)C(c1ccccc1)c1ccccc1,"inconclusive [inhibitor, single point]",–
Cc1ccc(-c2ccc([C@H]3[C@@H]4C=CCC[C@@]4(C)C(=O)N3Cc3ccccc3)c(F)c2)cc1,"inconclusive [inhibitor, single point]",–
CC1CCc2c(sc(NC(=S)NC(=O)c3ccccc3)c2C#N)C1 (stereo unspecified),"inconclusive [inhibitor, partial curve]",–
Cc1ccc2nc(-c3cccnc3)c(NC3CCCCC3)n2c1,"inconclusive [inhibitor, single point]",–
CCO[C@H]1OC(C(=O)NCc2nc3ccccc3[nH]2)=C[C@@H](c2ccc(C(F)(F)F)cc2)[C@@H]1CCCO,"inconclusive [inhibitor, single point]",–

SMILES,Potency,"activity change, negative = growth inhibition"
CCCOc1c(OC)cccc1C1CC(=O)Nc2cc3c(cc21)OCCO3 (stereo unspecified),"inconclusive [inhibitor, single point]",–
CC(C)(C)c1cc(NC(=O)CSc2nnc(NCc3ccccc3)s2)n(-c2ccccc2)n1,"inconclusive [inhibitor, partial curve]",–
CCCCNC(=O)c1onc(CSc2ccc(F)c(F)c2)c1C(=O)NCCCC,active: 16.4 µM,–
C=CCN(C(=O)CNC(=O)c1ccco1)C(C(=O)NC1CCCC1)c1ccc(OC)cc1 (stereo unspecified),inactive,–
O=c1cc(CN2CCCCC2)c2c(ccc3ccccc32)o1,"inconclusive [inhibitor, single point]",–
Cc1ccc(S(=O)(=O)N2C[C@@H]3[C@H]4CC[C@H](C4)[C@@H]3[C@@H](C)C2CC(=O)c2ccccc2)cc1 (stereo partly specified),"inconclusive [inhibitor, single point]",–
CCN(CC)c1ccc(/C=C/c2sc3ccccc3[n+]2CCCCI)cc1,active: 0.631 µM,–
Cc1ccc(-n2c(=O)c3ccc(C(=O)NCc4ccco4)cc3n(CC(=O)Nc3ccc(C)c(F)c3)c2=O)cc1,"inconclusive [inhibitor, single point]",–
CCC(CC)C(=O)N(C)c1c(C)nc2c(OCc3ccc(F)c(F)c3)cccn12,"inconclusive [inhibitor, single point]",–
O=c1oc(Nc2ccc(F)cc2)nc2ccccc12,inactive,–
Cc1ccc(S(=O)(=O)N2CCCC2)cc1C(=O)N1CCC(C)CC1,–,inconclusive: -14.5% [inhibitor]
COc1ccccc1/C=C/C=N/n1c(-c2n[nH]c3c2CCC3)n[nH]c1=S,"inconclusive [inhibitor, single point]",–
COc1ccc(NC(=O)COC(=O)c2cc3c(s2)CCC3)cc1,active: 16.4 µM,–
Cc1nc2ccc(NC(=O)c3nn(C(C)C)c(=O)c4ccccc34)cc2s1,"inconclusive [inhibitor, single point]",–
CCOC(=O)N1CCc2c(sc(NCc3ccc(N(CC)CC)cc3)c2C(=O)Nc2cc(OC)ccc2OC)C1,"inconclusive [inhibitor, single point]",–
COc1cccc(-c2cnc(C(O)c3ccc(C)cc3C)[nH]2)c1 (stereo unspecified),"inconclusive [inhibitor, single point]",–
O=C(NN=C1CCCCCC1)c1cccs1,inactive,–
CCOc1ccc(-n2c(SCC(=O)NCc3ccccc3)nc3n[nH]c(C)c3c2=N)cc1,active: 9.2 µM,–
CNc1cccnc1C=NNC(N)=S,active: 1.16 µM,–
Nc1nc2ccccc2n1C(=O)c1cccs1,"inconclusive [inhibitor, single point]",–
CC(Oc1ccc(Cl)cc1)C(=O)Nc1cccc(S(=O)(=O)N2CCOCC2)c1 (stereo unspecified),"inconclusive [inhibitor, single point]",–
O=c1cnc2cnc(N3CCNCC3)nc2n1CCc1ccccc1,inactive,–

SMILES,Potency,"activity change, negative = growth inhibition"
Cc1ccc(C(=O)Nc2ccc(Nc3ccccc3)cc2)c(Cl)c1,"inconclusive [inhibitor, single point]",–
O=c1[nH]cnc2c1sc1nc(-c3ccccc3)c3c(c12)CCCC3,inactive,–
CCOC(=O)c1sc(-c2ccc(F)cc2)cc1NC(=O)Nc1ccccc1OC,active: 16.4 µM,–
Cc1cccc(CNc2nc(-c3ccc(C(=O)N(C)C)cc3)nc3ccccc23)c1,active: 23.1 µM,–
C=CCn1c(SCC(=O)c2cc(C)n(C(C)COC)c2C)nc2sc(C)c(C)c2c1=O (stereo unspecified),"inconclusive [inhibitor, single point]",–
COc1ccc(NC(=O)CSc2ccc3nnc(-c4ccccn4)n3n2)cc1,inactive,–
O=C(CCN1CCCC1)c1cccs1,active: 0.731 µM,–
Cc1cc2nc(C)c(=O)n(C)c2cc1C,"inconclusive [inhibitor, single point]",–
Cc1ccc(SCc2cc(=O)[nH]c(Nc3nc(C)c4ccc(C)cc4n3)n2)cc1,"inconclusive [inhibitor, single point]",–
N#C/C(=C\c1c[nH]c2ccccc12)C(=O)Nc1ncc(Cc2ccc(Cl)cc2Cl)s1,"inconclusive [inhibitor, single point]",–
O=[N+]([O-])c1ccc(NCCCNS(=O)(=O)c2ccccc2)c(Cl)c1,"inconclusive [inhibitor, single point]",–
CC1Cc2cc(S(=O)(=O)CCC(=O)Nc3ccccc3F)ccc2N1C(=O)C1CC1 (stereo unspecified),"inconclusive [inhibitor, single point]",–
CCOC(=O)C1=C(Nc2ccc(C)cc2)CC(C)(O)C(C(=O)OCC)C1c1ccccc1 (stereo unspecified),"inconclusive [inhibitor, single point]",–
COc1ccc(OCc2nn3c(-c4ccco4)nnc3s2)cc1,"inconclusive [inhibitor, partial curve]",–
Cc1ccc(-n2nnc(-c3nccn3C)n2)cc1,active: 23.1 µM,–
CC(Cl)C(=O)NNC(=O)CNS(=O)(=O)c1ccccc1 (stereo unspecified),"inconclusive [inhibitor, single point]",–
CCOC(=O)CCSc1nc(N2CCOCC2)c2c(c1C#N)CC(C)(C)OC2,inactive,–
Cc1cc(C)n(-c2ccc(C(=O)C(C#N)c3nc4ccccc4n3C)cc2)n1 (stereo unspecified),"inconclusive [inhibitor, single point]",–
CCn1c(N2CCN(CC(=O)c3c(C)n(C)c4ccccc34)CC2)nc2c1c(=O)[nH]c(=O)n2C,"inconclusive [inhibitor, single point]",–
Cc1c(C(=O)NC2CCN(Cc3ccccc3)C2)oc2ccc(Br)cc12 (stereo unspecified),"inconclusive [inhibitor, single point]",–
Fc1ccc(NC(=S)N/N=C/c2cccc(Br)c2)c(F)c1,active: 6.51 µM,–
CC1(C)CC(=O)C2=C(C1)NC(Nc1nc3ccccc3o1)=NC2c1cccnc1 (stereo unspecified),"inconclusive [inhibitor, single point]",–

# — PubChem BioAssay AID686979 (National Center for Advancing Translational Sciences (NCATS), 2013)
